According to the RNAGym collection of RNA variant scans (doi:10.7554/elife.90254):
Read counts are not given, so values of variants with three or more changes are uncertain.

B1: LINE1-mini (parent)
chain: GGCAGAGCUCAACACAGCGUGGCAAAGUGGCUGUGGCUAGACUGCC

Variants of: B1
Assay: self-cleavage, relative activity (ratio to wild type); higher = more cleavage; in vitro, sequencing; the parent is a self-cleaving ribozyme

| Variant | self-cleavage |
| --- | --- |
| G2U G5U A11G G29U C46A | 0.01 |
| C3A C13A C37A C46U | 0.24 |
| G2U C3U C37G U38C | 0.04 |
| G2U U32G G36C | 0.03 |
| G2U C13U C18A C23G | 0.01 |
| G2U C8A G30A G33A A39G | 0.13 |
| G2U C18A U28C U38C | 0.03 |
| G2U C10G C23G A24C U32G U34A A41G | 0 |
| G2U G5C G27A G33U G40C | 0 |
| G2U C10U C37G | 0.01 |
| C3A A6G U9A A26G | 0.09 |
| C3A C15U C45A | 0.25 |
| G2U U20G U38C | 0.05 |
| C3A C10U A12U A16U A26U A39G | 0.04 |
| G2U U9G G40U | 0.06 |
| G2U C13U G30U A39U C45U | 0.02 |
| C3A A26U C42A | 0.08 |
| G2U U20C C23U A24U C31A | 0.02 |
| G2U G7U C31A G40C | 0.06 |
| G2U G27U G33U U43G C45A | 0 |
| G2U C10G G19U A26G U34G C46G | 0.01 |
| G2U G7U G33C | 0.07 |
| C3A A6C G19U A26G G27C G29C A41C | 0.1 |
| C3A C13U C18U G27A C31U C37A | 0.18 |

| Variant | self-cleavage |
| --- | --- |
| G2U G5U G7A U9A G30C C31A G40A | 0.05 |
| G2U C18G G29U | 0.13 |
| G2U G5A C46A | 0.07 |
| C3A C13U G21A U28A G30U G44A C46U | 0.05 |
| G2U C13U A25C G27U | 0.02 |
| C3A A25U G29U A39C | 1.12 |
| C3A A11U A16C A24U A26U C46U | 0.02 |
| C3A A11G A25G G33A U34A U38C | 0 |
| C3A C8A U20A | 0.4 |
| G2U U28A C46G | 0.15 |
| C3A A16G G27U U32G | 0.05 |
| C3A A41G G44A | 0.09 |
| G2U C31G C37A A39U | 0.1 |
| C3A A14G A41U | 0.32 |
| C3A A4U C46A | 0.04 |
| G2U C8U A25C G29A C42U | 0.03 |
| G2U G7C A24U U38A C45G | 0.04 |
| C3A A11G U28A | 0.02 |
| C3A C15U G21U G30C | 0.17 |
| C3A C8A G35C U38C A41U U43G | 0.55 |
| C3A C8A A11C | 0.02 |
| C3A A4G A26G C37G | 0.03 |
| G2U G27U U28C | 0.01 |
| C3A A16U U20A A25C G35U | 0.06 |

| Variant | self-cleavage |
| --- | --- |
| G2U G5A A14U | 0.05 |
| G2U G17C A39G C42G | 0 |
| C3A A4G C31U G44U | 0.02 |
| G2U C10U G29U | 0.05 |
| G2U C8U C37A C42A | 0.02 |
| C3A A12G C31U C37U U43A | 0.17 |
| G2U G17U G22A C23G | 0.01 |
| C3A A4G C15U A16U U32G | 0.07 |
| G2U G27U A41U | 0.09 |
| C3A C15G G19U | 0.04 |
| G2U G7C A16G G19A U43A | 0.02 |
| C3A A11C U20A G22U A24U | 0.04 |
| C3A A4G C13A | 0.25 |
| C3A A14G G27A C45G | 0.46 |
| C3A C15G A41C | 0.08 |
| C3A A4C C8A G40A | 0.24 |
| G2U C18A C46A | 0.04 |
| G2U U32C G33U | 0.04 |
| C3A C10U C18U | 0.04 |
| C3A A25U G27U G40U | 0.06 |
| G2U G5U C13A A25G | 0.02 |
| G2U C10G C18U A24G G29C C45G C46G | 0 |
| C3A C10A C13A U20G C45G | 0.04 |
| G2U G7A A12U C18U G36U | 0.18 |

| Variant | self-cleavage |
| --- | --- |
| C3A A14U C15A | 0.41 |
| C3A A4G C10U | 0.18 |
| G2U G5A C23U C37A C42U C45A | 0.03 |
| C3A C13A U20C A24C G27A | 0.01 |
| C3A C15A C18A G36U | 0.15 |
| G2U G7A U9C U20G | 0.02 |
| C3A C13A U28C G33C | 0.09 |
| C3A A14U U43C | 0.43 |
| G2U G17U A24C | 0.05 |
| C3A C8U C37U | 0.45 |
| C3A A11U G33C | 0.03 |
| G2U G5C A24U C31G G33C C46G | 0.02 |
| C3A A6G C23A A39G C45A | 0.01 |
| G2U U43A C46G | 0 |
| C3A A4C C45A | 0.11 |
| C3A C13A A26C G40A | 0.18 |
| C3A C8U G21A | 0.26 |
| G2U G7A A16U | 0.01 |
| C3A C10U A24U U28C G35A | 0.08 |
| C3A C15G A16U | 0.43 |
| C3A C10A G30U G44U | 1.18 |
| C3A A6U U28A C31U | 0.08 |
| G2U C8G G29U G30C | 0.04 |
| G2U U9G A24U | 0.01 |

| Variant | self-cleavage |
| --- | --- |
| C3A A12C G17U U20A A24G G33C | 0.02 |
| G2U G33U U34G | 0.08 |
| G2U G5A C18A G21A G29U | 0 |
| G2U C15A G30A C42U G44C | 0.03 |
| C3A A11C G21C C37G U38A A41C | 0 |
| C3A A4U A14G | 0.14 |
| C3A A6G U9G A11U C15U A16U G21A A24U A25U | 0.03 |
| C3A A4U G27C U32A | 0.03 |
| G2U G21U C31A | 0.02 |
| G2U U9G A11G G21C C31U | 0 |
| C3A C10U A39G | 0.12 |
| G2U G5A G17U A26U | 0.01 |
| C3A A12G A26G U34C C37U A39C C46U | 0.09 |
| G2U C3U U28G G30U U43A | 0.08 |
| C3A A11C C13U U20G | 0.03 |
| C3A A25G G29C G33A U34G | 0.03 |
| G2U G33U G36A | 0.01 |
| G2U C10U U34G | 0.02 |
| G2U C8A A25C U38A | 0.01 |
| G2U G17C G19U A39G C42A | 0.03 |
| G2U C3U C13U A14G | 0.02 |
| G2U C3U G33U U38A C42U | 0.03 |
| G2U C8G G33A | 0.03 |
| G2U G35U U43A | 0.09 |

| Variant | self-cleavage |
| --- | --- |
| C3A C10U G17U G30C | 0.1 |
| G2U C13A A16G G21C G33U | 0 |
| G2U U28A U43C C46A | 0.01 |
| G2U G7U C13G G19A G36A U38A | 0.02 |
| C3A A6U A11G C13G | 0.12 |
| C3A A4G A12U G19A U34G | 0.09 |
| G2U C10A C18G U28C C31G A39G | 0 |
| G2U C13A A24U G29U C42A | 0.01 |
| C3A C13G U38A | 0.47 |
| G2U G5U C10A G17A C18G | 0 |
| G2U G27A A41U | 0.1 |
| G2U U34C G35U | 0.04 |
| C3A A12U A14G G30A | 0.21 |
| G2U C3U G33U | 0.05 |
| G2U G29U C37U C45U | 0.05 |
| C3A C8U A16U C31G C42A | 0.25 |
| G2U U34C G40C | 0.06 |
| G2U U9C A11U A26G A41C | 0.03 |
| G2U C8G A12C C15A G19A U38G | 0.01 |
| G2U G22C C45G | 0.18 |
| G2U C18A G40U C45A | 0.03 |
| C3A C18G G29C G33C G40U | 0.11 |
| C3A C15G C23G G27A | 0.01 |
| G2U U20A C23A | 0.24 |

| Variant | self-cleavage |
| --- | --- |
| C3A A14C U28A C37U | 0.69 |
| C3A A6G G33A | 0.09 |
| C3A A14C C42U | 0.05 |
| C3A C15G A39C | 0.05 |
| C3A C18G C42G | 0.09 |
| C3A A6U C45A | 0.38 |
| C3A C8A G27U C31U | 0.44 |
| G2U C23A A24C U32C | 0.08 |
| G2U C15G A26C | 0 |
| G2U G30A C31A C45G | 0.08 |
| G2U C15G C18U | 0.01 |
| C3A A12C A16G G22A A24G A25U | 0.02 |
| C3A C13A U34C | 0.25 |
| C3A A26G C45G | 0.58 |
| C3A C8U C15A A41U | 0.44 |
| C3A A12U C37A | 0.07 |
| C3A C8G A16C G29A | 0.05 |
| C3A A4G G7U C42A | 0.16 |
| G2U G21A C37U U43G | 0.03 |
| C3A A26U G44C | 0.14 |
| C3A C8U C10U G19U C46U | 0.11 |
| C3A A6U A39G G40U | 0.2 |
| G2U C18A C31G G35U C42G | 0.03 |
